Measured values as given in paper PMC4051706.
No constants are given. Whether binding was seen depends on the method and setting. Binding seen in cells or lysates may run through a third protein. Some entries that bind do so weakly or less than the wild type.

How the values were obtained:
[1] = target: T1, sorting nexin 31 (SNX31), mouse urothelium (mouse (endogenous in mouse urothelium)) (UniProt Q6P8Y7); test: proximity ligation; in situ PLA (Duolink) on paraffin sections of mouse bladder, wild type and Vps33a mutant (Buff); signals counted per umbrella cell
T1 sequence: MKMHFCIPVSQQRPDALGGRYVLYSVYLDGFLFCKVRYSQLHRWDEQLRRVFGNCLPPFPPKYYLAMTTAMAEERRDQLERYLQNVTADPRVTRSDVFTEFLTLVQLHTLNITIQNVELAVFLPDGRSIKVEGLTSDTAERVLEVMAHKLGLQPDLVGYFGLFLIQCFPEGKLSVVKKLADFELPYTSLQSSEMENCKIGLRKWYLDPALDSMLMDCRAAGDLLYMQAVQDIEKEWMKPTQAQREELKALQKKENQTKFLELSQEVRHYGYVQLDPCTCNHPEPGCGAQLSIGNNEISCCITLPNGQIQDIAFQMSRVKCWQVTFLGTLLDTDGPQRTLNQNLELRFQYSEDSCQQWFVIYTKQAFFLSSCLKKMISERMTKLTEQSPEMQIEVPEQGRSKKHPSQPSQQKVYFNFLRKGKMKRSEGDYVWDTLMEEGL

[2] = target: T1, sorting nexin 31 (SNX31), mouse urothelium (mouse (endogenous in mouse urothelium)); test: co-IP; affinity-purified anti-SNX31 antibody crosslinked to aminolink plus resin; 300 µg of total mouse urothelial proteins in RIPA buffer; quenched beads, control beads and anti-Gst beads as negative controls; 6 washes with cold lysis buffer; immunoblot
[3] = target: T2, uroplakin IIIa (UPIIIa), mouse urothelium (mouse (endogenous in mouse urothelium)) (UniProt Q9JKX8); test: proximity ligation; in situ PLA (Duolink) on paraffin sections of mouse bladder, wild type and Vps33a mutant (Buff); signals counted per umbrella cell
T2 sequence: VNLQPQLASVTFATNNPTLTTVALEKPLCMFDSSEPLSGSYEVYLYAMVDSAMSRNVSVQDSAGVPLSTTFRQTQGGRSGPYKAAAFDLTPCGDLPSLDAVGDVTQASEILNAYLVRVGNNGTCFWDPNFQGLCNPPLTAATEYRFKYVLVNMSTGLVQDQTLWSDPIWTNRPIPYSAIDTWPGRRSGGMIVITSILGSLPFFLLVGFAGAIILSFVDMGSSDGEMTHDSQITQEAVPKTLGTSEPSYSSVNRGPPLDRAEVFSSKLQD

B1: uroplakin IIIa (UPIIIa), mouse urothelium (protein, UniProt Q9JKX8 19-287)
chain: T2 sequence
With B1 the binding [1] was “binds” and the binding [2] was “binds”.

B2: uroplakin Ib (UPIb), mouse urothelium (protein, UniProt Q9Z2C6 1-260)
chain: MAKDDSTVRCFQGLLIFGHVIVGMCGIALTAECIFFVSDQHSLYPLLEATNNDDIFGAAWIGMFVGICLFCLSVLAIVGIMKSNRKILLAYFIMMFIVYGFEVASCITAATQRDFFTTNLFLKQMLMRYQNNSPPTNDDEWKNNGVTKTWDRLMLQDHCCGVNGPSDWQKYTSAFRVENNDADYPWPRQCCVMDKLKEPLNLDACKLGVPGYYHSQGCYELISGPMDRHAWGVAWFGFAILCWTFWVLLGTMFYWSRIEY
With B2 the binding [3] was “binds” and the binding [2] was “binds”.

B3: uroplakin Ia (UPIa), mouse urothelium (protein, UniProt Q9D132 1-257)
chain: MASAATEGEKGSPVVVGLLVVGNIIILLSGLALFAETVWVTADQYRVYPLMGVSGKDDVFAGAWIAIFCGFSFFVVASFGVGAALCRRRYMILTYLLLMLIVYIFECASCITSYTHRDYMVSNPSLITKQMLTYYSADTDQGQELTRLWDRIMIEQECCGTSGPMDWVNYTSAFRAATPEVVFPWPPLCCRRTGNFIPINEDGCRVGHMDYLFTKGCFEHIGHAIDSYTWGISWFGFAILMWTLPVMLIAMYFYTTL
In the case of B3, the binding [2] is reported as “no binding”.
